Reference: a compilation of properties of binary mixtures (doi:10.1021/je400097b)
The densities may have been worked out from excess volumes.

Test: xn = mol fraction of the nth substance listed
Details: 101 kPa

O + CC[NH+](C)CC.O=S(=O)([O-])C(F)(F)F
Details	mass density [kg/m3]
353.15 K, x1 = 1	970.1

CC[NH+](C)CC.O=S(=O)([O-])C(F)(F)F + O
mass density [kg/m3]
Details	x2 = 0.037	x2 = 0.434	x2 = 0.586	x2 = 0.759	x2 = 0.844	x2 = 0.925	x2 = 0.972
293.15 K	1294.1	1278	1259.2	–	1195.9	1135	1062.8
313.15 K	–	1261.5	1243.3	1211.9	1180.8	1122	1053
333.15 K	1261.4	–	1227.3	–	–	1107.7	1041.1
353.15 K	1245.5	–	1210.6	–	1147.3	1091	1027.3
